The whole screen tested about 420,000 compounds, of which about 64,000 (15%) were called active. Inconclusive means that the source gave no clear call. Such entries were picked first, then a sample of the others. The call rests on the fitted dose curve; in most records, active means well fitted inhibition curve with a large enough effect; inconclusive means small, poorly fitted or top-dose-only effect; inactive means flat fitted curve, though single readings scatter. No potency is given beside an inconclusive call; the fits are too rough.
Experiment: qHTS for Inhibitors of human tyrosyl-DNA phosphodiesterase 1 (TDP1): qHTS in cells in absence of CPT; further: nearly all actives have a fitted effect of over 55% in size
Conditions: DT40 Tdp1-/- hTDP1 cells, no CPT, ATP luminescence, 48 h; activity change, negative = growth inhibition: at 46.2 µM (top of the series)
How it was run: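 Stably hTDP1-transfected Tdp1-null chicken DT40 cells were treated with library compounds minus camptothecin and grown for at least 48 hr at 37 °C, after which cellular ATP was quantified by luminescence.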
On the % scale 0 is the no-effect control and ±100 the full control effect; potency means the concentration at half of the fitted maximal effect; tags describe the fitted curve by direction and shape.

Row | SMILES | activity change, negative = growth inhibition | Potency
1 | Cc1cccc(OCc2nnc(SCC(=O)Nc3ncc(C)s3)o2)c1 | inactive: 0.357% | 
2 | O=S(=O)(Nc1nc2ccccc2nc1Nc1ccccc1Br)c1ccccc1 | inactive: -22.6% | 
3 | COC(=O)[C@@]1(Cc2ccc(F)cc2)[C@H]2c3cc(C(=O)N4CCCC4)n(Cc4cc(F)cc5c4OCOC5)c3C[C@H]2CN1C(=O)c1ccccc1 |  | inconclusive [inhibitor, single point]
4 | COCCNC(=O)CN(C)S(=O)(=O)c1ccc2c(c1)OCCO2 | inactive: -9.2% | 
5 | Fc1ccc(-c2ccc(CNCCSc3nnnn3-c3ccccc3)o2)cc1 |  | inconclusive [inhibitor, single point]
6 | Nc1c2c(nc3ccn(-c4ccccc4)c(=O)c13)CCCCC2 |  | inconclusive [inhibitor, full curve, poor fit]
7 | O=C(NCC(c1ccco1)N1CCCC1)c1sc2ccccc2c1Cl (stereo not given) |  | active: 20.6 µM
8 | Cc1ccc(NC(=O)Cc2coc3ccc(C(C)C)cc23)c(C)c1 |  | inconclusive [inhibitor, single point]
9 | CC1CCc2c(sc(NC(=O)c3cc(-c4cccc(Cl)c4)on3)c2C(N)=O)C1 (stereo not given) | inactive: -4.86% | 
10 | Cc1cc(C)nc(Nc2cccc3ccccc23)n1 | inactive: -11.1% | 
11 | C[C@H](NC(=O)c1nc[nH]c1C(=O)N[C@@H](CCCCNC(=O)OC(C)(C)C)C(=O)OC(C)(C)C)C(=O)OC(C)(C)C |  | inconclusive [inhibitor, single point]
12 | Cc1occc1C(=O)N/N=C/c1ccccn1 |  | inconclusive [inhibitor, single point]
13 | O=C(Cn1c2ncccc2c(=O)n1-c1ccccc1)NCc1ccccc1Cl |  | inconclusive [inhibitor, single point]
14 | CCC(C)[C@H](N)c1nnc(SCc2cccc(F)c2)o1 (stereo not given in full) | inactive: 2.59% | 
15 | CCCCSc1nc(N)c(C#N)c(-c2cccs2)c1C#N |  | inconclusive [inhibitor, single point]
16 | CCOC(=O)c1c(NC(=O)C(C)OC(=O)c2ccc(NC(=O)CC#N)cc2)sc2c1CCCC2 (stereo not given) |  | inconclusive [inhibitor, single point]
17 | CCOc1ccc(-c2cn(-c3ccc(C)cc3)c(SCC(=O)Nc3ccc(C)cc3)n2)cc1 |  | inconclusive [inhibitor, single point]
18 | COc1cc(CN2CCN(Cc3ccc(C)cc3)C(CCO)C2)cc(OC)c1O (stereo not given) |  | inconclusive [inhibitor, single point]
19 | CC1CCCC(NC(=O)COC(=O)c2cccs2)C1C (stereo not given) | inactive: 2.82% | 
20 | Cn1nccc1C(=O)N1CCC(Cc2ccccc2)CC1 |  | inconclusive [inhibitor, single point]
21 | CC1CN(C(=O)CN2C(=O)c3ccccc3C2=O)CC(C)O1 (stereo not given) |  | inconclusive [inhibitor, partial curve]
22 | O=C(CSc1nc2ccc(Cl)cc2[nH]1)NC1CCCc2ccccc21 (stereo not given) |  | active: 20.6 µM
23 | CCC(=O)N1CCc2cc(S(=O)(=O)NC(CC(C)C)C(=O)NCCc3cccc(C)c3)ccc21 (stereo not given) |  | inconclusive [inhibitor, partial curve]
24 | O=C(CCSc1nc2ccccc2s1)N/N=C/c1c(O)ccc2ccccc12 |  | active: 3.66 µM

Row | SMILES | activity change, negative = growth inhibition | Potency
25 | Cc1sc2nc(CSCC(=O)N3CC(C)OC(C)C3)[nH]c(=O)c2c1C (stereo not given) | inactive: -16.7% | 
26 | COc1ccc(Cl)cc1-c1noc([C@@H]2O[C@H](CO)[C@@H](O)[C@H]2O)n1 |  | inconclusive [inhibitor, single point]
27 | Cc1cc(C)c(S(=O)(=O)Nc2c(C)n(C)n(-c3ccccc3)c2=O)cc1[N+](=O)[O-] | inactive: -2.01% | 
28 | COc1ccc(CNCC(O)(c2ccc(F)cc2)c2ccc(F)cc2)cc1 |  | active: 13 µM
29 | COc1ccc(/C=N/OCC(=O)Nc2nc3ccccc3s2)cc1OC |  | inconclusive [inhibitor, partial curve]
30 | COc1cccc(C(=O)OCCN2CCCCC2)c1 | inactive: -13.2% | 
31 | Cc1ccc(NC(=O)CSc2nccn2Cc2ccco2)cc1Cl |  | inconclusive [inhibitor, single point]
32 | Cc1onc(-c2ccccc2)c1C(=O)N/N=C/c1cccc(O)c1 | inconclusive: -31.3% [inhibitor] | 
33 | CC(C)c1cc(Cn2c3ccccc3c(=O)n2C(C)Cn2cc(-c3ccccc3)nn2)on1 (stereo not given) |  | inconclusive [inhibitor, single point]
34 | COC(=O)c1sccc1NC(=S)N1CCCCC1 | inactive: -11.5% | 
35 | Cc1ccc(CNc2ncc(-c3ccccc3)n2C)o1 |  | inconclusive [inhibitor, full curve, poor fit]
36 | COc1ccc(C(C)(NC(C)=O)c2nc(-c3cccc(F)c3)cs2)cc1 (stereo not given) |  | inconclusive [inhibitor, single point]
37 | O=C(CN1CCCC1)Nc1ccc(OC(F)(F)F)cc1 | inactive: -27% | 
38 | CC(=O)c1c(C)[nH]c(C(=O)N2CCN(c3ncccn3)CC2)c1C |  | inconclusive [inhibitor, single point]
39 | COC(=O)C(NNc1ccc(F)cc1)(NC(=O)c1ccccc1)C(F)(F)F (stereo not given) |  | inconclusive [inhibitor, single point]
40 | CC(C)N(C(=O)[C@H]1C[C@H](CC(=O)NCc2ccco2)C(=O)N2CCc3c([nH]c4cc(-c5ccco5)ccc34)[C@]12C)C(C)C |  | inconclusive [inhibitor, single point]
41 | O=S(=O)(NC1CCc2ccccc21)c1ccc(S(=O)(=O)N2CCCC2)cc1 (stereo not given) |  | inconclusive [inhibitor, single point]
42 | COc1cccc2cc(C(=O)C3=C(O)C(=O)N(c4cc(C)on4)C3c3cccs3)oc12 (stereo not given) |  | inconclusive [inhibitor, single point]
43 | CCOC(=O)Cc1cc(=O)[nH]c(/N=C(\N)Nc2ccc(C)c(C)c2)n1 |  | inconclusive [inhibitor, partial curve]
44 | Cn1c(=O)c2c(n3c4ccccc4nc13)NC(=O)CC2c1cccc(F)c1 (stereo not given) | inactive: -27.3% | 
45 | CCN1CCN(c2ccc(S(=O)(=O)N3CCCCC3)cc2NC(=O)Cc2ccccc2F)CC1 |  | inconclusive [inhibitor, single point]
46 | C[C@H]1CN([C@@H](C)CO)C(=O)c2cc(C#CCC3CCCC3)cnc2O[C@@H]1CN(C)C(=O)CC1CC1 |  | inconclusive [inhibitor, single point]
47 | COc1ccc(C2C(C(C)=O)=C(O)C(=O)N2CCc2ccccc2)c(OC)c1 (stereo not given) | inactive: -2.59% | 
48 | COc1ccc(NC(=O)c2c(NC(=O)CNCc3ccco3)sc3c2CCC3)c(OC)c1 |  | active: 20.6 µM

Row | SMILES | activity change, negative = growth inhibition | Potency
49 | CC1(c2ccc(OC(F)F)cc2)NC(=O)N(CC(=O)Nc2ccccc2)C1=O (stereo not given) |  | inconclusive [inhibitor, single point]
50 | COc1cc(F)cc(C2=CC(=O)C[C@H](c3ccc(F)cc3)C2)c1 |  | inconclusive [inhibitor, single point]
51 | CCCSc1ncnc2sc(C)c(C)c12 | inactive: -15.3% | 
52 | COc1ccc(-c2onc(C)c2C)cc1S(=O)(=O)NCC(C)c1ccccc1 (stereo not given) |  | inconclusive [inhibitor, single point]
53 | CC1CCc2nc3ccccc3c(C(=O)OCC(=O)N(C)C3CCS(=O)(=O)C3)c2C1 (stereo not given) |  | inconclusive [inhibitor, partial curve]
54 | C[C@@H](C(=O)Nc1ccc2c(c1)OCCO2)n1c(=O)[nH]c2ccccc2c1=O | inactive: 1.46% | 
55 | COCCOC(=O)C1=C(C)OC(N)=C(C#N)C1c1ccc2c(c1)OCO2 (stereo not given) |  | inconclusive [inhibitor, single point]
56 | CCSc1cc(N2CCOCC2)nc(-c2ccccc2)n1 | inactive: -5.83% | 
57 | CC(C)(C)c1ccc(Cn2c(=O)cnc3ccccc32)cc1 |  | active: 16.4 µM
58 | CC(C)CCNC(=O)/C=C/c1ccc(Br)cc1 |  | inconclusive [inhibitor, partial curve, poor fit]
59 | O=C(CCCCn1c(=O)c2ccccc2n(Cc2ccccc2Cl)c1=O)NCc1ccc2c(c1)OCO2 |  | inconclusive [inhibitor, single point]
60 | Cc1ccccc1-n1c(C)nnc1SCC(=O)N(C)C1CCS(=O)(=O)C1 (stereo not given) | inactive: 1.14% | 
61 | CCCCC(=O)Nc1ccc(C(=O)NNC(=O)c2ccco2)cc1 | inactive: 10.7% | 
62 | CCN(CC)C(=O)c1cccc2c1C(=O)c1ccccc1-2 |  | inconclusive [inhibitor, single point]
63 | Cc1ccc(CSc2nnc(-c3cccc(S(=O)(=O)N4CCOCC4)c3)n2CC(C)C)cc1 |  | active: 8.2 µM
64 | O=C1C2C3C=CC(C3)C2C(=O)N1/N=C/c1cn(Cc2ccccc2)c2ccccc12 (stereo not given) |  | inconclusive [inhibitor, partial curve]
65 | O=C(Nc1cccnc1)c1ccc(Oc2ccccc2)cc1 |  | inconclusive [inhibitor, single point]
66 | NS(=O)(=O)c1ccc(Nc2ccc3cc(S(=O)(=O)N4CCCCC4)ccc3n2)cc1 |  | inconclusive [inhibitor, single point]
67 | Cc1ccc(C)c(N2CCN(C(=O)CCCN3C(=S)NC(C)(C)CC3C)CC2)c1 (stereo not given) |  | active: 10.3 µM
68 | O=C(C[C@@H]1CC[C@@H]2[C@H](COC[C@H](O)CN2S(=O)(=O)c2ccccc2)O1)Nc1ccccc1 |  | inconclusive [inhibitor, single point]
69 | Cc1ccc2nc(-c3ccncc3)cc(C(=O)Nc3ccc(OC(F)F)cc3)c2c1 |  | active: 9.2 µM
70 | COC(=O)c1ccccc1N=Nc1c(N)n[nH]c1N | inactive: -18.7% | 

— PubChem BioAssay AID686978 (National Center for Advancing Translational Sciences (NCATS), 2013)
